The results in this text go back to the supplement of paper PMC3334620.

Over roughly 33,000 sequences, “E-score (-0.5 to 0.5)” has its median near -0.053; the highest 2% begin near 0.37. The list shows a part of the results.

This assay has as its target Hap1 (UniProt P0CE41). Briefly: PBM E-score (8-mer binding enrichment) (E-score (-0.5 to 0.5)); higher = stronger / more preferred TF binding; most listed sequences are background and not binding sites. The conditions noted are these: protein concentration: 200 nM; construct: GST-DNA-binding domain. In outline: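 Yeast transcription factors, full-length or as DNA-binding domains, were expressed with a GST tag using PURExpress in vitro transcription/translation. At about 100-200 nM they were applied to universal all-10-mer Agilent arrays, double-stranded by primer extension on fresh or once-stripped slides. Fluorescent anti-GST detected bound protein, and masliner normalised the scans. E-scores for ungapped eight-base words, pooled with reverse complements, came from the Universal PBM Analysis Suite.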
Sequence of UniProt P0CE41 (P0CE41 whole entry, the tested form may be a part): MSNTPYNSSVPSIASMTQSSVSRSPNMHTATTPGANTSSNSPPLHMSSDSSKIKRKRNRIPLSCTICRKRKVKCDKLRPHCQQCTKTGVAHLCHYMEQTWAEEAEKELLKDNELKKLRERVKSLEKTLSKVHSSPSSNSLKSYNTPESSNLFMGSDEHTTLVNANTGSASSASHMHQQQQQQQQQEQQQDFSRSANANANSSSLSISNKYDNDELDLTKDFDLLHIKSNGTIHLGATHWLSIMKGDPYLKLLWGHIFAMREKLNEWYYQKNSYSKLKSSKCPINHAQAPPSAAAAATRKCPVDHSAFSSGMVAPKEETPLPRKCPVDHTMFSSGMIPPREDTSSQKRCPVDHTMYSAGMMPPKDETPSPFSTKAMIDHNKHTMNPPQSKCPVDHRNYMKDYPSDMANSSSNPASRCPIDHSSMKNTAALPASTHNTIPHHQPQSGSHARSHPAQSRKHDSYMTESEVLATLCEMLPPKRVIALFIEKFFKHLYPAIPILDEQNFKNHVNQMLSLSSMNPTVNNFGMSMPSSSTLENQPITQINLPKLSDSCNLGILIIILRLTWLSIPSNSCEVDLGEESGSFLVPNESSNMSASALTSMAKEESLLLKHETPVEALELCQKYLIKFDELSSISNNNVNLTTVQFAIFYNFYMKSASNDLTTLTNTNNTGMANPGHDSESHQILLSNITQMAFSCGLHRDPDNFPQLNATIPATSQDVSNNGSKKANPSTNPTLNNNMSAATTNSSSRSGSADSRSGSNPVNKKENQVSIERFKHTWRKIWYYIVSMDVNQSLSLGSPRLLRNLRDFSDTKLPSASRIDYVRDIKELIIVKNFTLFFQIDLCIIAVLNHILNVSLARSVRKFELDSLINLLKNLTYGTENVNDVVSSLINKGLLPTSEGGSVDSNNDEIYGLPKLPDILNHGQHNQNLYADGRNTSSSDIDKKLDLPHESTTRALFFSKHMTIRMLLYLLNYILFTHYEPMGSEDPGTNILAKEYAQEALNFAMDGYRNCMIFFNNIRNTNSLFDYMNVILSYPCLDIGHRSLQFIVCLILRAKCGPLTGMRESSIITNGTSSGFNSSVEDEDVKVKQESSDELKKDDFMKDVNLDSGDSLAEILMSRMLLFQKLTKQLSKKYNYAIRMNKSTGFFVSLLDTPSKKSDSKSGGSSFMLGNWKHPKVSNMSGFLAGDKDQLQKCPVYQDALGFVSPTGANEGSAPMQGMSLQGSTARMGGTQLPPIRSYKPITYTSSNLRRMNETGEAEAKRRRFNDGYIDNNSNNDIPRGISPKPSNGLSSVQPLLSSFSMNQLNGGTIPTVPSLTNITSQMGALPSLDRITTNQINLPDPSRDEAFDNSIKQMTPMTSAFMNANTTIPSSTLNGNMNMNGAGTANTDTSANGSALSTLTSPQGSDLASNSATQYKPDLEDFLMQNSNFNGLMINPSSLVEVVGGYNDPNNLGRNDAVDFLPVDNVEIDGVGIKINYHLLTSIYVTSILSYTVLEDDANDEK
Regarding AGTCGGCG, the “PBM E-score” value worked out at 0.159.
The value for ACTCGTGC was -0.124; that for GAGGGATC was 0.0369; that for ACCTTAGT was -0.217.
The value for CCCAACGA was -0.0546; that for GACGACTC was -0.101; that for TAAGCAGA was 0.015.
The value for CCAACGCA was -0.0331.
With CCAATGTC, the “PBM E-score” value is -0.15.
As for ACCGGACC, the “PBM E-score” value worked out at 0.397.
The value for CATGGCTC was -0.11; that for CCCAGGGC was -0.121; that for GGTCAAAA was -6e-05.
The value for CATGTGAA was -0.0737; that for GACTCTGC was -0.13.
The value for GGAATGTA was 0.215; that for CTACCTAA was -0.14; that for AGCTGGAC was -0.13.
As to AAAACTAC, the “PBM E-score” value came out at 0.124.
The value for AACAGGAT was -0.265.
The value for CTTTGGCA was -0.279; that for GGGCCAAC was 0.00168.
The value for AAAAGGAA was 0.0913; that for CATGGTGA was -0.0558; that for GCGTCCCC was -0.0827.
For AGGGTGGC, the “PBM E-score” value was -0.0363.
The value for CGCTCGAG was -0.0165.
The value for GACTGAGA was -0.168.
The value for CTACTCCA was -0.0772.
Turning to ACTCGCCT, the “PBM E-score” value is -0.14.
The value for ACCGACCT was 0.0397; that for CTCCACGC was -0.176.
As to CCCTAGTA, the “PBM E-score” value was -0.13.
The value for GATAACAA was 0.085; that for GAAGACTA was -0.0051.
In the case of GATGGCCC, the “PBM E-score” value was -0.0457.
The value for GCTACTTA was -0.357; that for ACTAACGG was 0.209; that for ATGGCGTA was -0.284.
The value for TATTCTGA was -0.144.
The value for CTATGGAG was -0.202.
On to AAGTTTAC, for which the “PBM E-score” value was -0.0737.
The value for GCTTGAGA was -0.212; that for AGTACGGC was 0.0514.
The value for ATAGTTTA was -0.152; that for CTAGACGA was -0.377; that for ACACCGGG was 0.321.
The value for AGACTGGG was -0.0747.
As to CCAGCTCC, the “PBM E-score” value was determined as 0.0613.
The value for GAATTGCA was -0.0685; that for ATACCTAC was -0.0437; that for ACTCGAAC was -0.181.
The value for GATGACCC was -0.0335; that for AGACTGCG was -0.236; that for CTTCACTA was 0.00472.
The value for ACGCTAGA was -0.148; that for ACCGAGGA was 0.309; that for TAGTGCCA was -0.092.
TAGTAAAA: the “PBM E-score” value is -0.0645.
The value for ATCAAGTA was -0.292; that for ACAATCTG was -0.111; that for CCATACGA was -0.313.
The value for AGTATGTA was -0.162; that for ACACCGGC was 0.341.
The value for CGACTGTA was -0.166.
As for AAGCAGTC, the “PBM E-score” value is -0.145.
Regarding TATCCTAA, the “PBM E-score” value is -0.0421.
The value for GTCAATGA was -0.247.
The value for ACTGAGCT was -0.133; that for CTGAGATA was 0.0178.
The value for AAAGACTT was -0.288; that for CAAGGCGC was 0.0297; that for AAAATGCG was 0.174.
On to GGGTGCAA, for which the “PBM E-score” value turned out to be 0.172.
The value for TAAAGATA was 0.0503; that for GGGAAAGA was -0.0239.
The value for GTTTTCAA was -0.0317; that for GGAGCATA was 0.211; that for CCGCCACG was 0.0808.
The value for CACCGTTC was -0.0228; that for ACTATGGG was -0.108.
For ACTTGGTC, the “PBM E-score” value is 0.102.
Take AGTCGTCC: the “PBM E-score” value worked out at 0.0326.
The value for ACTGCCAC was -0.217; that for AAGCATAC was -0.171; that for GGCGCTGA was 0.018.
In the case of ATCATGGC, the “PBM E-score” value was -0.00164.
The value for ACATGTCG was -0.0145; that for AGGAACTA was -0.0416; that for ATGCCAGG was -0.127.
The value for ATAGGAAG was -0.076.
The value for CGTGATCA was -0.114; that for AATCGTTA was -0.0968; that for TCCACGGA was 0.349.
